# Measurements published in PubChem BioAssay AID504706 (National Center for Advancing Translational Sciences (NCATS), 2011).
# The whole screen tested about 320,000 compounds, of which about 200 (0.062%) were called active. Inconclusive means that the source gave no clear call. Such entries were picked first, then a sample of the others. The call rests on the fitted dose curve; in most records, active means well fitted activation curve with a large enough effect; inconclusive means small, poorly fitted or top-dose-only effect; inactive means no such curve, though single readings can be large or run the other way. Potencies of inconclusive entries are left out as doubtful fits.
# Assay: qHTS assay for re-activators of p53 using a Luc reporter; further: nearly all actives have a fitted effect of over 45% in size; on activity change, positive = activation: % of control where 0% means no effect
# Settings: H1299 p53-A138V BP100-luciferase reporter, luminescence, 24 h; series mostly up to 92.2 µM; activity change, positive = activation: at the top concentration
# Method in brief: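 p53-null H1299 cells stably carrying temperature-sensitive p53-A138V and a BP100-luciferase reporter were pinned with compounds (4-point, 1:5 series) and held 24 hrs at 37 deg C. Luminescence was read 10 min after detection reagent.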
# Potency means the concentration at half of the fitted maximal effect; tags describe the fitted curve by direction and shape.
SMILES,"activity change, positive = activation",Potency
O=C(N/N=C/c1cccnc1)c1cc(-c2cccs2)nc2ccccc12,inactive: 2.82%,–
Cc1ccc(-c2nnc(N3CCOCC3)c3ccccc23)cc1S(=O)(=O)N(C)C,inactive: 3.78%,–
CC(C)(C)c1ccc(/C=C/C(=O)NCCCn2ccnc2)cc1,–,"inconclusive [activator, single point]"
COc1ccc(NC(=O)c2ccccc2F)cc1Cl,–,"inconclusive [activator, partial curve, poor fit]"
CCOC(=O)c1snc(C(=O)NC2CCCCC2)c1N,–,"inconclusive [activator, partial curve, poor fit]"
C=CCSc1ncc(-c2ccccc2)cn1,–,"inconclusive [activator, full curve, poor fit]"
CC(Oc1cccc(Cl)c1)C(=O)Nc1nc(-c2ccccn2)cs1 (stereo not drawn),–,"inconclusive [activator, partial curve, poor fit]"
CC(=O)c1ccc(NC(=O)c2ccc([N+](=O)[O-])o2)cc1,inactive: -75.9%,–
Cc1cccc(NC(=O)C(=O)C2C(=O)Nc3ccccc32)c1 (stereo not drawn),inactive: 8%,–
CCOC(=O)c1c(C(F)(F)F)nc2ncccn12,inactive: -2.62%,–
NS(=O)(=O)c1ccc(NC(=S)NCc2cccs2)cc1,inactive: -3.94%,–
CCCc1nc(SCC(=O)N2c3ccccc3CC2C)c2c(C)c(C)sc2n1 (stereo not drawn),–,"inconclusive [activator, single point]"
COc1ccccc1NC(=O)c1cc2ccc(O)cc2o/c1=N\O,–,"inconclusive [activator, single point]"
COCn1c(COc2ccc3ccccc3c2)nc2ccccc21,–,"inconclusive [activator, partial curve, poor fit]"
CS(=O)(=O)c1ccc2c(c1)sc1nc(=O)c(/C=C3/C=CC(=O)C(O)=C3)c(N)n12,inactive: 17.6%,–
O=C(CNC(=S)N(Cc1ccc(F)cc1)C1CCCCC1)NCC1CCCO1 (stereo not drawn),inactive: -1.57%,–
CCCOc1ccc2c(=O)c(-c3cc(C(=O)OC)oc3C)c(C)oc2c1,inactive: -3.74%,–
COc1ccc(OCCC(=O)NC2=NCCS2)cc1,–,"inconclusive [activator, partial curve, poor fit]"
O=C(N/N=C/c1ccc2c(c1)OCO2)c1ccc(COc2cccc3cccnc23)cc1,inactive: 12.1%,–
CCCC1=NN(C(=O)CCc2ccccc2O)C(O)(C(F)(F)F)C1 (stereo not drawn),inactive: 1.69%,–
O=C(Nc1ccc(F)cc1F)NC1CCCCCCC1,inactive: 19.3%,–
O=C(Nc1ccon1)c1sc2cc(Cl)ccc2c1Cl,–,"inconclusive [activator, partial curve, poor fit]"
COc1cc(OC)cc(-c2nnc(Nc3nc4c(F)cccc4s3)o2)c1,inactive: -1.61%,–
CCN(CC)S(=O)(=O)c1ccc(N=Nc2c(C)[nH]n(C(N)=S)c2=O)cc1,–,"inconclusive [activator, partial curve, poor fit]"
O=C(NCC1CCCO1)c1cccc(Oc2ccc([N+](=O)[O-])cc2)c1 (stereo not drawn),inactive: -2.47%,–

SMILES,"activity change, positive = activation",Potency
CCOC(=O)c1c(-c2ccco2)csc1NC(=O)COC(=O)c1cnccn1,–,"inconclusive [activator, partial curve, poor fit]"
COCCCNc1ncnc2ccc(C)cc12,–,"inconclusive [activator, single point]"
Cc1csc(NC(=O)Nc2ccc(Cl)cc2)n1,–,"inconclusive [activator, full curve, poor fit]"
O=C(CCCN1C(=O)/C(=C/c2cccc(Br)c2)SC1=S)Nc1ccccn1,–,"inconclusive [activator, partial curve, poor fit]"
COc1cccc(-c2csc3ncnc(Sc4nnnn4C)c23)c1,inactive: 0.818%,–
NC(=O)c1nsc(C(=O)N(CC(=O)NC2CCCCC2)Cc2ccc(F)cc2)c1N,–,"inconclusive [activator, partial curve, poor fit]"
CCN(CC)CCOC(=O)c1ccc(NC(=O)/C=C/c2cccs2)cc1,–,"inconclusive [activator, single point]"
CSc1cccc(NC(=S)NC(=O)CCc2ccccc2)c1,inactive: 8.36%,–
CCOC(=O)c1ccc(NC(=O)C23CCC(C)(C(=O)O2)C3(C)C)cc1 (stereo not drawn),–,"inconclusive [activator, partial curve, poor fit]"
NNc1nc2c(F)cccc2s1,–,"inconclusive [activator, full curve, poor fit]"
COc1ccc(Oc2nnnn2-c2ccccc2)cc1,inactive: 21.4%,–
O=C(NC(=S)NC(=O)c1ccccc1F)c1ccccc1F,–,"inconclusive [activator, partial curve]"
CCOC(=O)c1ccc(-c2c(-c3cc(OC)c(OC)c(OC)c3)noc2C)cc1F,inactive: 18.1%,–
Cc1cc(C)c(C#N)c(SCC(=O)Nc2ccccc2C(N)=O)n1,inactive: -3.51%,–
CSc1ccc(S(=O)(=O)N(CC(=O)NN=C2CCN(C)CC2)c2ccc(C)cc2)cc1,inactive: 3.24%,–
COCCNC(=O)C(=O)NCC1OCCN1S(=O)(=O)c1ccc(F)cc1 (stereo not drawn),–,"inconclusive [activator, single point]"
CC(=O)c1ccc(NC(=O)CSc2nccn2CCc2ccccc2)cc1,–,"inconclusive [activator, partial curve, poor fit]"
O=c1c2c3c(sc2ncn1-n1cccc1)CCCCC3,–,"inconclusive [activator, partial curve, poor fit]"
CCn1c(NC(C)=O)nc2ccccc21,inactive: 5.13%,–
Cc1c(Cc2ccc3c(c2)OCO3)sc(NC(=O)c2ccccc2)c1C(N)=O,inactive: 7.78%,–
NNC(=S)Nc1cccc(Cl)c1,inactive: 4.47%,–
O=C(COC(=O)COc1ccccc1[N+](=O)[O-])NCc1ccc2c(c1)OCO2,inactive: -6.61%,–
O=C(/C=C/Nc1cccc(F)c1)c1ccco1,–,"inconclusive [activator, partial curve, poor fit]"
CN(C(=O)CN1C(=O)/C(=C/c2ccc(F)cc2)SC1=S)C1CCS(=O)(=O)C1 (stereo not drawn),–,"inconclusive [activator, partial curve]"
Cc1nnc(SC(C(=O)Nc2ccc(Cl)c([N+](=O)[O-])c2)c2ccccc2)[nH]c1=O (stereo not drawn),inactive: 2.78%,–

SMILES,"activity change, positive = activation",Potency
Cc1ccc(NC2=C(CC(=O)O)C(c3ccccc3)N(c3ccc(C)cc3)C2=O)cc1 (stereo not drawn),–,"inconclusive [activator, partial curve, poor fit]"
CC(=O)NC1=NN(C(C)=O)C(c2ccccn2)S1 (stereo not drawn),–,"inconclusive [activator, single point]"
Cc1nc2nc(-c3ccccc3)[nH]n2c(=O)c1C,–,"inconclusive [activator, single point]"
CCOC(=O)c1ccc(Nc2nnc(C(C)(C)C)c(=O)[nH]2)cc1,–,"inconclusive [activator, single point]"
Cc1ccc(NC(=O)Nc2cccc([N+](=O)[O-])c2)cc1F,–,"inconclusive [activator, full curve, poor fit]"
COc1cccc(Nc2ncnc3sc(C)cc23)c1,–,"inconclusive [activator, partial curve, poor fit]"
O=C(c1cnn(-c2ccccc2)c1)c1cc(F)ccc1O,–,"inconclusive [activator, partial curve, poor fit]"
N#Cc1cc2c(nc1SCC(N)=O)CCCCC2,–,"inconclusive [activator, full curve, poor fit]"
Cc1ccc(NC(=O)c2ccc(OCC3CCCO3)cc2)c(C)c1 (stereo not drawn),–,"inconclusive [activator, partial curve, poor fit]"
Cc1ccc2c(CNCc3ccco3)cc(=O)oc2c1,–,"inconclusive [activator, partial curve, poor fit]"
Cc1ccc2oc(=O)n(CCCOc3ccccc3)c2c1,inactive: 19.9%,–
COc1ccc(/C=C2\CCC/C(=C\C=N\N(C)C)C2=O)cc1,–,"inconclusive [activator, single point]"
Cc1ccc(-c2nc3ccccn3c2Nc2ccccc2)o1,–,"inconclusive [activator, full curve]"
CCN1CCN(C(=O)c2ccc3c(c2)c(C)c(C)n3Cc2ccccc2)CC1,–,"inconclusive [activator, partial curve, poor fit]"
Fc1cccc2sc(Nc3nc4cc5c(cc4s3)OCO5)nc12,–,"inconclusive [activator, partial curve, poor fit]"
CCOC(=O)C1=C(N)OC2=C(C(=O)CC(C)(C)C2)C1c1cc(CSc2nnnn2C)cs1 (stereo not drawn),inactive: -10.2%,–
COc1ccc(Cn2nnnc2C(c2cc3cc(C)cc(C)c3[nH]c2=O)N2CCOCC2)cc1 (stereo not drawn),–,"inconclusive [activator, single point]"
COc1ccc(NC(=O)Nc2sc(NS(=O)(=O)c3ccccc3)nc2C)cc1,inactive: -6.04%,–
O=C(NCCN1CCN(C(=O)c2ccc([N+](=O)[O-])cc2)CC1)C(=O)NCc1ccccc1,inactive: -4.87%,–
CCOC(=O)C(NC(=O)CC)(Nc1ccccc1OC)C(F)(F)F (stereo not drawn),–,"inconclusive [activator, partial curve, poor fit]"
O=c1oc2ccc(Cl)cc2nc1/C=C(\O)c1cccs1,–,"inconclusive [activator, full curve, poor fit]"
COc1ccccc1CN1CC(C(=O)NCCc2ccccc2Cl)CCC1=O (stereo not drawn),–,"inconclusive [activator, partial curve, poor fit]"
Cc1ccc(NC(=O)N2CCCC2C(=O)Nc2c(C)cc(C)cc2C)cc1 (stereo not drawn),inactive: 3.27%,–
